{
  "source": "PubChem BioAssay (Tox21)",
  "note": "Where “and” joins values, the source holds several entries; their conditions need not be identical. Identical values can stand only once. The shares of active, inactive and inconclusive entries below differ from those in the screen. A potency beside an inconclusive call is a rough fit, not a confirmed value. Calls of active or inactive are those of the source. Calls come from the whole dose curve; as a rule, active = well fitted inhibition curve with a large enough effect in the repeat runs; inconclusive = weak or mixed curves; inactive = no such curve, though single readings can be large or run the other way. % is set by controls: 0 for no effect and ±100 for the full control effect; potency is the fitted concentration of half-maximal effect; tags give direction and shape of the fitted curve.",
  "data": [
    {"target": "Cytochrome P450 1A2 (Homo sapiens) (UniProt P05177)", "sequence (P05177 whole entry, looked up)": "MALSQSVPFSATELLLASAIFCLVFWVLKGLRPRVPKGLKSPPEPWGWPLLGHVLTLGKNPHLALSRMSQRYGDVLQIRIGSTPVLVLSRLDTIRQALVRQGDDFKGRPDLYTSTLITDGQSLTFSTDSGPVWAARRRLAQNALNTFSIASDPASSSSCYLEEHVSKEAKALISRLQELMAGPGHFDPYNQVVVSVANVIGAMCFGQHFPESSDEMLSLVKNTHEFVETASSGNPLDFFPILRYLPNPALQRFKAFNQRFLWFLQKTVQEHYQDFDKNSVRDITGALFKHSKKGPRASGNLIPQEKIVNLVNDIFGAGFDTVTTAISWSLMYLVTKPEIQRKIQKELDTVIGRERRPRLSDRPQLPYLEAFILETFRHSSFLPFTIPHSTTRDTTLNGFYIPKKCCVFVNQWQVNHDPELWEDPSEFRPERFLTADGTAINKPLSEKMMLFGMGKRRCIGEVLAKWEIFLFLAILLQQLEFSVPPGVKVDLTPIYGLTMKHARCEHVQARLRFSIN", "assay": "Cytochrome P450 Family 1 Subfamily A Member 2 (CYP1A2) small molecule antagonists: luciferase reporter qHTS assay (AID 1671199); note: nearly all actives have a fitted effect of over 50% in size", "details": "P450-Glo CYP1A2 enzyme, luciferin luminescence, 1 h; series mostly up to 115 µM; activity change, negative = inhibition: at the top concentration", "procedure,_shortened": "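Read-out is luminescence from luciferin detection reagent (20 min) proportional to CYP1A2 activity; compounds in DMSO preincubated 10 min with enzyme and proluciferin substrate, then NADPH regeneration solution, 1 h, room temperature.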", "values": [
      {"compound": "NC(=O)c1cnccn1", "Potency": "inconclusive: 27.5 µM [inhibitor, partial curve, poor fit]"},
      {"compound": "CCOCCOC(=O)/C=C/c1ccc(OC)cc1", "Potency": "active: 7.76 µM"},
      {"compound": "COc1ccc2cccc(CCNC(C)=O)c2c1", "Potency": "active: 4.9 µM"},
      {"compound": "O=C(O)c1cc(Br)c(O)c(Br)c1", "Potency": "active: 39.9 µM"},
      {"compound": "CC(C)(c1cc(Br)c(OCC(Br)CBr)c(Br)c1)c1cc(Br)c(OCC(Br)CBr)c(Br)c1", "note": "(stereo not drawn)", "Potency": "inconclusive: 34.6 µM [inhibitor]"},
      {"compound": "CCCC(=O)OC", "activity change, negative = inhibition": "inactive: -21.5%"},
      {"compound": "CCC(=O)C(=O)CC", "activity change, negative = inhibition": "inactive: -14.7%"},
      {"compound": "Cc1ccc(C(C)C)cc2c(C)ccc1-2", "Potency": "inconclusive: 27.5 µM [inhibitor, partial curve]"},
      {"compound": "Oc1cc(Cl)cc(Cl)c1Cl", "Potency": "active: 16.3 µM"},
      {"compound": "CCCCCCCCCCCCCCCCBr", "Potency": "inconclusive: 17.1 µM [inhibitor, partial curve]"},
      {"compound": "CCC(C)(CCC(C)C)C(=O)[O-].CCC(C)(CCC(C)C)C(=O)[O-].[Zn+2]", "note": "(stereo not drawn)", "Potency": "inconclusive: 56.4 µM [inhibitor, partial curve]"},
      {"compound": "COC1=CC(=O)C[C@@H](C)[C@]12Oc1c(Cl)c(OC)cc(OC)c1C2=O", "Potency": "inconclusive: 70.4 µM [inhibitor, partial curve, poor fit]"},
      {"compound": "CC(C)(C)NC(N)=O", "Potency": "active: 17.8 µM"},
      {"compound": "CC(=O)OC(C)C", "Potency": "inconclusive: 38.8 µM [inhibitor, partial curve, poor fit] and inactive"},
      {"compound": "C[C@@H]1NC(=O)[C@@H](N)CNC(=O)[C@H](C2CCNC(N)=N2)NC(=O)/C(=C/NC(N)=O)NC(=O)[C@H](CNC(=O)C[C@@H](N)CCCN)NC1=O", "note": "(stereo partly drawn)", "activity change, negative = inhibition": "inactive: 10.4% [at 0.435 µM]"},
      {"compound": "ClCCl", "activity change, negative = inhibition": "inactive: 0.961%"},
      {"compound": "O=C(CS)Nc1ccccc1", "Potency": "inconclusive: 12.9 µM [inhibitor, full curve, poor fit]"},
      {"compound": "C[C@]12CC[C@@H]3c4ccc(O)cc4CC[C@H]3[C@@H]1CC[C@@H]2O", "Potency": "inconclusive: 31.7 µM [inhibitor, partial curve] and inconclusive: 20 µM [inhibitor, full curve]"},
      {"compound": "CC(C)(CO)COC(=O)C(C)(C)CO", "Potency": "inconclusive: 63.3 µM [inhibitor, partial curve] and inactive"},
      {"compound": "CCOCCC(=O)OCC", "Potency": "inconclusive: 73.7 µM [inhibitor, partial curve, poor fit]"},
      {"compound": "CC(C)C[P+](C)(CC(C)C)CC(C)C", "Potency": "inconclusive: 71.4 µM [inhibitor]"},
      {"compound": "CC(C=O)Cc1ccc(C(C)C)cc1", "note": "(stereo not drawn)", "Potency": "inconclusive: 71 µM [inhibitor, partial curve, poor fit]"},
      {"compound": "CCC(=O)O", "Potency": "inactive"},
      {"compound": "CCO[Si](CCC1CCC2OC2C1)(OCC)OCC", "note": "(stereo not drawn)", "Potency": "inconclusive: 71 µM [inhibitor, partial curve]"},
      {"compound": "NC(CSCC(=O)O)C(=O)O", "note": "(stereo not drawn)", "Potency": "inconclusive: 27.5 µM [inhibitor, partial curve, poor fit]"},
      {"compound": "CC(C)=CCO", "Potency": "inconclusive: 39.9 µM [inhibitor, partial curve]"},
      {"compound": "O=C(O)C(=O)Cc1c[nH]c2ccccc12", "Potency": "active: 35.6 µM"},
      {"compound": "CCC(C)SSC(C)CC", "note": "(stereo not drawn)", "Potency": "inconclusive: 35.6 µM [inhibitor, partial curve]"},
      {"compound": "CC/C=C\\C/C=C\\C/C=C\\CCCCCCCC(=O)OCC", "Potency": "inconclusive: 64.8 µM [inhibitor, partial curve]"},
      {"compound": "CC(=O)OC(C)C[N+](C)(C)C", "note": "(stereo not drawn)", "Potency": "inconclusive: 30.9 µM [inhibitor, partial curve]"},
      {"compound": "CN(C)C=O", "Potency": "inconclusive: 79.6 µM [inhibitor, single point]"},
      {"compound": "O=C(O)c1cc(-c2ccccc2)nc2ccccc12", "Potency": "inconclusive: 32.3 µM [inhibitor, partial curve]"},
      {"compound": "Cc1cccc2cccnc12", "Potency": "active: 44.5 µM"},
      {"compound": "O=C1CCCC(=O)C1", "Potency": "inconclusive: 63.1 µM [inhibitor, partial curve]"},
      {"compound": "CC1=C(/C=C/C(C)=C/C=C/C(C)=C/CO)C(C)(C)CCC1", "Potency": "inconclusive: 83.9 µM [inhibitor]"},
      {"compound": "CC(C)CC(C)CC(O)CC(C)C", "note": "(stereo not drawn)", "Potency": "inconclusive: 63.3 µM [inhibitor, partial curve]"},
      {"compound": "C=Cc1ccc(OC(C)=O)cc1", "Potency": "inconclusive: 44.8 µM [inhibitor]"},
      {"compound": "CC(=O)OCCN(CCOC(C)=O)c1ccc(N=Nc2ccc([N+](=O)[O-])cc2C#N)cc1", "Potency": "inconclusive: 28.3 µM [inhibitor, partial curve]"}
    ]}
  ]
}
